Assay results: PubChem BioAssay AID624296 (National Center for Advancing Translational Sciences (NCATS), 2012)
In all, about 350,000 compounds went through this assay and about 9,900 (2.8%) were called active. This list was built around the results that the source calls inconclusive (neither active nor inactive); the mix of calls is not that of the screen. The call rests on the fitted dose curve; in most records, active means well fitted activation curve with a large enough effect; inconclusive means small, poorly fitted or top-dose-only effect; inactive means no such curve, though single readings can be large or run the other way. No potency is given beside an inconclusive call; the fits are too rough.

test: A quantitative high throughput screen for small molecules that induce DNA re-replication in MCF 10a normal breast cells.; further: nearly all actives have a fitted effect of over 50% in size; conditions: MCF 10A DNA re-replication, Hoechst nuclear intensity, 48 h; series mostly up to 46.1 µM
Potency means the concentration at half of the fitted maximal effect; tags describe the fitted curve by direction and shape.

Compound | Potency
O=C(c1ccc(-c2cccc(C(F)(F)F)c2)o1)N1CCCCCCC1 | inconclusive [activator, single point]
O=C(NCC1CCCO1)c1cc2c(s1)CS(=O)(=O)C2 (configuration not stated) | inconclusive [activator, single point]
Cc1cc(OCCCCCN2CCCC2)ccc1Cl | inconclusive [activator, single point]
Cc1cccc(OCC(=O)Nc2nnc(S(=O)(=O)N3CCCCCC3)s2)c1 | inactive
COC(=O)[C@]1(C)CCC[C@@]2(C)C3CC[C@@]4(C)C[C@]3(CC[C@H]12)C[C@H]4O (some centres not stated) | inconclusive [activator, partial curve]
Cc1c(C(=O)NCCCN2CCOCC2)oc2c1C1(CCC2)SCCS1 | inconclusive [activator, full curve, poor fit]
CN(C(=O)c1ccccc1C(=O)OCC(=O)Nc1cccc(Br)c1)c1ccccc1 | inactive
CCc1ccc2c(c1)C1(NN=C(c3ccccc3)S1)C(=O)N2 (configuration not stated) | active: 18.4 µM
CCCCCCCCCCCCCCCC[N+](C)(C)CC | inconclusive [activator, partial curve]
C[C@H](CO)N1C[C@H](C)[C@@H](CN(C)Cc2ccc(Cl)c(Cl)c2)Oc2c(NC(=O)CCC(F)(F)F)cccc2C1=O | inconclusive [activator, single point]
CCCCn1c2c(c(=O)n(C)c1=O)C(c1ccc(OC)cc1)N1CCCCCC1=N2 (configuration not stated) | inactive
Cc1cc(C)n(-c2nnc(NC(C)(C)C)nn2)n1 | inconclusive [activator, single point]
Cc1cc(Cl)ccc1OCC(O)CNCCc1ccc(S(N)(=O)=O)cc1 (configuration not stated) | inconclusive [activator, single point]
O=C(NC(=S)N1CCN(Cc2ccc3c(c2)OCO3)CC1)c1cccc(Br)c1 | inactive
CC1CCN(Cc2cc(=O)oc3ccc4ccccc4c23)CC1 | inconclusive [activator, single point]
CC(C)c1ccc(-c2nn(-c3ccccc3)cc2C2C(C#N)=C(N)OC3=C2C(=O)CC(C)(C)C3)cc1 (configuration not stated) | inconclusive [activator, single point]
COc1ccc(Cc2nnc(SCC(=O)Nc3ccc(N4CCOCC4)cc3)n2C)cc1 | inactive
CC1CCCN(c2nc3ccccc3nc2C(C#N)S(=O)(=O)c2ccccc2)C1 (configuration not stated) | inconclusive [activator, partial curve, poor fit]
O=C(Oc1cc(=O)oc2c1c(=O)n1c3c(cccc23)CC1)c1ccc(F)cc1 | inconclusive [activator, single point]
CN(CC(=O)NC(=O)NCc1ccco1)Cc1nc2ccccc2c(=O)[nH]1 | inconclusive [activator, partial curve]
COc1ccc(S(=O)(=O)Nc2cc(Cl)ccc2OC)cc1 | active: 3.26 µM
C=CCn1c(SCc2ccc(Br)cc2F)nc2cc(C(=O)O)ccc2c1=O | inconclusive [activator, single point]
CC(=O)Nc1ccc(CN2CCCC(CCC(=O)NCc3ccccc3F)C2)cc1 (configuration not stated) | inconclusive [activator, partial curve, poor fit]
COC(=O)c1ccc(NC(=S)NC2CC2)cc1 | inactive

Compound | Potency
CCCn1c(O)c(C=Nc2ccccc2)sc1=S | inconclusive [activator, partial curve, poor fit]
O=C(Nc1ccccc1C(=O)Nc1ccc2c(c1)OCO2)c1ccco1 | inconclusive [activator, full curve, poor fit]
COc1ccccc1C(=O)COC(=O)Cc1n[nH]c(=O)c2ccccc12 | inactive
CC1=CC(=NOC(=O)/C=C/c2ccccc2)C=C(C)C1=O | inconclusive [activator, single point]
COc1cc(/C=C/c2ccccc2)cc(OC)c1 | inconclusive [activator, single point]
Cc1ccc(S(=O)(=O)N/N=C\c2cc3c(cc2[N+](=O)[O-])OCO3)cc1 | active: 23.1 µM
CCCCCOc1ccc(NC(=O)C(=O)NCCCn2ccnc2)cc1 | inconclusive [activator, partial curve, poor fit]
CC(Sc1cccc[n+]1[O-])C(=O)NC1CCCCC1C (configuration not stated) | inactive
Cc1ccc(S(=O)(=O)Nc2ccc(-n3cnnn3)cc2)cc1 | inconclusive [activator, full curve, poor fit]
COc1ccc(S(=O)(=O)N(CC(=O)NC2CCCCC2)c2ccc(F)cc2)cc1 | inactive
Cn1c(CCCOc2ccc(Cl)cc2Cl)nnc1SCC(=O)Nc1nccs1 | inactive
CCCc1nc2sc(C(=O)OCC)c(N)c2c2c1COC(C)(C)C2 | active: 3.26 µM
C/C(=N\NC(=S)Nc1ccc(F)cc1)C1CC1 | inactive
CC1=C(C(=O)OC(C)(C)C)C(c2cccs2)NC(=O)N1 (configuration not stated) | inconclusive [activator, single point]
CCOc1ccc2cc(C#N)c(SCC(=O)N3CCC(C)CC3)nc2c1 | inconclusive [activator, single point]
Nc1nc(SCc2ccc([N+](=O)[O-])cc2)c2ncn(C3OC(CO)C(O)C3O)c2n1 (configuration not stated) | inconclusive [activator, single point]
O=C(COC(=O)/C=C/c1ccco1)Nc1ncc(Cl)cc1Cl | inactive
CC(=O)NCc1ccc(-c2csc(NC(=O)CCc3nc4ccccc4c(=O)[nH]3)n2)s1 | inactive
Cc1ccn2cc(CSc3ccccc3)nc2c1 | inactive
C[C@H]1CN([C@@H](C)CO)C(=O)Cc2cc(NC(=O)Nc3ccccc3)ccc2O[C@H]1CN(C)Cc1ccccc1 | inconclusive [activator, single point]
Cc1noc(/C=C/c2cccnc2)c1[N+](=O)[O-] | inconclusive [activator, single point]
O=C(c1ccccc1)N1CCN(C(=O)c2ccccc2)c2ccccc21 | inconclusive [activator, partial curve, poor fit]
COc1ccc(S(=O)(=O)N2CCN(C3CC4CCC3C4)CC2)cc1 (configuration not stated) | inconclusive [activator, partial curve, poor fit]
CCC(=O)Nc1ccc2nc(C3CC3)n(Cc3ccccc3)c(=O)c2c1 | inactive

Compound | Potency
COc1cccc(N2CC(C(=O)Nc3nnc(SCC(=O)c4ccccc4)s3)CC2=O)c1 (configuration not stated) | inconclusive [activator, full curve, poor fit]
O=C(c1ccc(N2CCCCC2)c([N+](=O)[O-])c1)N(Cc1ccccc1)c1ccccn1 | inactive
CC(NC(=O)Nc1ccccc1Cl)c1ccc2c(c1)OCO2 (configuration not stated) | inconclusive [activator, partial curve, poor fit]
CC(=O)Nc1sc(C)c(C)c1C(=O)OCC(=O)N(C)C1CCS(=O)(=O)C1 (configuration not stated) | inconclusive [activator, single point]
Cc1ccc(C(=O)CCC(=O)OCC(=O)N2CCN(S(=O)(=O)c3ccc(C)cc3C)CC2)cc1 | inconclusive [activator, full curve, poor fit]
CN(CCc1ccccc1)C(=O)c1ccc(NC(=O)Cc2ccc(NC(=O)C3CCCN(C(=O)CCc4ccccc4)C3)cc2)cc1 (configuration not stated) | inconclusive [activator, single point]
CC(=O)NNC(=O)CC(=O)Nc1nc(C23CC4CC(CC(C4)C2)C3)cs1 | inconclusive [activator, partial curve, poor fit]
COc1ccc(C(=O)NC(Cc2ccccc2)c2ccc3c(c2)OCCCO3)cc1 (configuration not stated) | inactive
CCN1CCS/C1=C\C=C\C1=[N+](CC)CCS1 | inconclusive [activator, single point]
O=C(NCCOc1ccccc1)c1ccccc1Cl | inactive
COc1cccc(-c2noc(C3CCCN(C(=O)CC(C)(C)C)C3)n2)c1 (configuration not stated) | active: 0.461 µM
c1ccc(SCc2nc3ccccc3[nH]2)cc1 | inactive
CCN(CC)CCOc1ccc(/C(=C(\Cl)c2ccccc2)c2ccccc2)cc1 | active: 5.17 µM
COc1cc(/C=N/NC(=O)c2cccc3ccccc23)ccc1OCC(N)=O | inactive
CCC(=O)Nc1sc2c(c1C#N)CCC2 | inactive
CN(CC(=O)Nc1ccc(F)c(F)c1F)C(=O)C1CCC1 | inconclusive [activator, full curve, poor fit]
CC(C)CCN1C(=O)CCC1(C)C(=O)NC1CCCCCC1 (configuration not stated) | inactive
CCOC(=O)C1CCN(C(=S)NC(=O)c2cccs2)CC1 | inactive
O=C(CN1CCCc2ccccc21)N/N=C/c1c(O)ccc2ccccc12 | inconclusive [activator, single point]
CCC(=O)NC(Cc1ccccc1)c1ccc2c(c1)OCCCO2 (configuration not stated) | inactive
CC(=O)Nc1ccc(NC(=O)C(C)OC(=O)c2ccc(S(=O)(=O)N3CCCCC3)cc2)cc1 (configuration not stated) | inconclusive [activator, single point]
CCOC(=O)c1c(NC(=O)CSc2nc3ccccc3o2)sc(C(C)=O)c1C | inconclusive [activator, single point]
Cc1cccc(C)c1NC(=O)C(Cl)C(=O)c1ccccc1 (configuration not stated) | active: 18.4 µM
Cc1ccc(SCc2nc3ccccc3n2CC(=O)Nc2ccc(Cl)cc2)cc1 | inconclusive [activator, single point]
